{
  "source": "paper PMC7819943",
  "about": "“Rice protein-binding microarrays: a tool to detect cis-acting elements near promoter regions in rice”",
  "note": "This is one part of the list.",
  "data": [
    {"biological_target": "T1, OsWOX13 (Oryza sativa, UniProt Q5QMM3 1-267)", "T1 sequence": "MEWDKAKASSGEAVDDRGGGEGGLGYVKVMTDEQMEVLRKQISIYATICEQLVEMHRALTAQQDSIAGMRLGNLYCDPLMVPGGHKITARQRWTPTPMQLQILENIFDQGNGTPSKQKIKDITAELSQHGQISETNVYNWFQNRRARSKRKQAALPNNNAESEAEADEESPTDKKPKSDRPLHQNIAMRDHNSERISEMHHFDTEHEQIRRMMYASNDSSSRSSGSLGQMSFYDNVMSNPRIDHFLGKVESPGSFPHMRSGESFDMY", "test": "protein-binding microarray (RPBM); PBS, 2% BSA, 51.3 ng/ul salmon testes DNA, 50 uM zinc acetate, 200 nM TF, 25 C, 1 h; high values mean tight binding", "details": "protein: recombinant; tags: N-terminal polyhistidine and DsRed monomer fusion (pET32a); label: CyDye5-dUTP incorporated in the synthesized complementary strand; 3' TTTTT single-stranded linker to array surface; dsDNA, one strand shown", "how_it_was_run": "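Transcription factors were made in E. coli BL21-CodonPlus as N-terminal fusions to a polyhistidine tag and DsRed, then purified on Ni–NTA. After primer extension with Cy5-dUTP and blocking with 2% BSA, a custom Agilent array was exposed for 1 h at 25 °C to 200 nM protein in PBS, 2% BSA, salmon testes DNA and 50 µM zinc acetate. Washed arrays were scanned on an Axon 4000B, and the binding signal is per-feature fluorescence intensity in arbitrary units.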", "values": [
      {"sequence": "GTTGTAATTAAATCTTTACAACAAGATCAGACATGATTATCGGAGTCACCTAGTGCAG", "binding signal": "6600 fluorescence intensity (a.u.)"},
      {"sequence": "AAAACTAATTACACAGTTTGCATGAAAATCGCGAGACGAACGGAGTCACCTAGTGCAG", "binding signal": "10500 fluorescence intensity (a.u.)"},
      {"sequence": "TATAGCTCCTTATTGACAGGATGATTTCTTGCCTCGGACACGGAGTCACCTAGTGCAG", "binding signal": "8700 fluorescence intensity (a.u.)"},
      {"sequence": "TTGCTAGATGATAAAACATGATTAATATTTTATACGTGACCGGAGTCACCTAGTGCAG", "binding signal": "8500 fluorescence intensity (a.u.)"},
      {"sequence": "ATCATCCTGATTAGTGCAATTTACCATCATTATTGTGTTGCGGAGTCACCTAGTGCAG", "binding signal": "25900 fluorescence intensity (a.u.)"},
      {"sequence": "AATAAATAAATTTAATATCGAAGTATTTGGCAAATTTCCCCGGAGTCACCTAGTGCAG", "binding signal": "9100 fluorescence intensity (a.u.)"},
      {"sequence": "TAACTTATTAATTGAACTTGTTAGACATAAGGGGTGACAACGGAGTCACCTAGTGCAG", "binding signal": "16400 fluorescence intensity (a.u.)"},
      {"sequence": "GGTGTTTGATTGGAGAGATTAAAGTGGGGCTAAACTTTATCGGAGTCACCTAGTGCAG", "binding signal": "19300 fluorescence intensity (a.u.)"},
      {"sequence": "TCTAGATTATGATCAAATAAGATAGGAGCACCACCAAATACGGAGTCACCTAGTGCAG", "binding signal": "3520 fluorescence intensity (a.u.)"},
      {"sequence": "CTTGAAGTGGCTAATTAACAAGTTTGTTTTCAGTTAGCATCGGAGTCACCTAGTGCAG", "binding signal": "7120 fluorescence intensity (a.u.)"},
      {"sequence": "CTTTTGAGCCTAATTAGTCCATGATTAGTTATAAGTGCTACGGAGTCACCTAGTGCAG", "binding signal": "19200 fluorescence intensity (a.u.)"},
      {"sequence": "GCAATCCTAACAGGCCCATTTAATTTTGAAGCCTGGTCCACGGAGTCACCTAGTGCAG", "binding signal": "4290 fluorescence intensity (a.u.)"},
      {"sequence": "TCCATATGTCAATTGAGTCTTTTACTGAAGAATCCTAGGACGGAGTCACCTAGTGCAG", "binding signal": "3300 fluorescence intensity (a.u.)"},
      {"sequence": "CATGATTAGCAGTTTAGCGCCATTACTATTCCTAGCACAACGGAGTCACCTAGTGCAG", "binding signal": "45100 fluorescence intensity (a.u.)"},
      {"sequence": "TTAGCCTAATTAGTCCATGATTAGCCGTAAGTGTCACAGTCGGAGTCACCTAGTGCAG", "binding signal": "28900 fluorescence intensity (a.u.)"},
      {"sequence": "TTAAAATTAAATTACGGCATCATCAAGCCTATATATCACCCGGAGTCACCTAGTGCAG", "binding signal": "19700 fluorescence intensity (a.u.)"},
      {"sequence": "ATATAAATTAATATGTGATAGATCACATGAACATTTCATACGGAGTCACCTAGTGCAG", "binding signal": "42700 fluorescence intensity (a.u.)"},
      {"sequence": "TTTGACAGAGCTTAGTGGAGACGCCATAGCCATGCACCATCGGAGTCACCTAGTGCAG", "binding signal": "4650 fluorescence intensity (a.u.)"},
      {"sequence": "ATTACGTAATTAATTAAAATACAAATTTCAGCATCCTTACCGGAGTCACCTAGTGCAG", "binding signal": "42300 fluorescence intensity (a.u.)"},
      {"sequence": "TTTAATTGAACTTGAGTGGTCCAGGTATTAAATGTGGGTCCGGAGTCACCTAGTGCAG", "binding signal": "52200 fluorescence intensity (a.u.)"},
      {"sequence": "ATTATGTTTATTGATTGGACGGAAAATTTCCCATTTTAATCGGAGTCACCTAGTGCAG", "binding signal": "29300 fluorescence intensity (a.u.)"},
      {"sequence": "CCTGCATCATCAATCTGCCTACATATCGATCGATTGATCTCGGAGTCACCTAGTGCAG", "binding signal": "4630 fluorescence intensity (a.u.)"},
      {"sequence": "GCTGATCTGCTCTGACTGACCCCATCATCGCTGTTGGCTGCGGAGTCACCTAGTGCAG", "binding signal": "4700 fluorescence intensity (a.u.)"},
      {"sequence": "GTATACAATGATTAAAGTATTTACTGTTACAATATTTAATCGGAGTCACCTAGTGCAG", "binding signal": "5610 fluorescence intensity (a.u.)"},
      {"sequence": "TGTCGCTTATAATTATGCATATCAGCCAAAATTTAAACTTCGGAGTCACCTAGTGCAG", "binding signal": "3550 fluorescence intensity (a.u.)"},
      {"sequence": "ATGACCTTAATTTACCTATATAAACCCAGGCCACGTCAGCCGGAGTCACCTAGTGCAG", "binding signal": "8620 fluorescence intensity (a.u.)"},
      {"sequence": "ATTCCAATAGGCAATCAAAATCAGGTCACACCCTCCTCTCCGGAGTCACCTAGTGCAG", "binding signal": "8810 fluorescence intensity (a.u.)"},
      {"sequence": "TAGTTGATAGCTGGCTATAATAGTATACTATTGTACGTGCCGGAGTCACCTAGTGCAG", "binding signal": "3660 fluorescence intensity (a.u.)"},
      {"sequence": "TAGCGTATGATTAATTAAGTTTTAATTAAAATAAACCGAACGGAGTCACCTAGTGCAG", "binding signal": "19200 fluorescence intensity (a.u.)"},
      {"sequence": "TATAAAGATTATAATATATATAAATGTATGTCATTACATTCGGAGTCACCTAGTGCAG", "binding signal": "4540 fluorescence intensity (a.u.)"},
      {"sequence": "TTTTGCTTGATTGGTGGTCTGATGTATTTGATGAGTGCGACGGAGTCACCTAGTGCAG", "binding signal": "31300 fluorescence intensity (a.u.)"},
      {"sequence": "ATTACAAATTTAGTAATCAAATCAACACATAACTATATGTCGGAGTCACCTAGTGCAG", "binding signal": "20000 fluorescence intensity (a.u.)"},
      {"sequence": "GAGATTGATTGCATATCAGAAGTAAATGATTTCAACAGATCGGAGTCACCTAGTGCAG", "binding signal": "54400 fluorescence intensity (a.u.)"},
      {"sequence": "TGCAGATAGAGAGAAACGCAGTGATTGCGGGCAACCTCCCCGGAGTCACCTAGTGCAG", "binding signal": "3380 fluorescence intensity (a.u.)"},
      {"sequence": "CATATTAAAGTGTTGATTGATGGAGAGAGGGATTTCATCACGGAGTCACCTAGTGCAG", "binding signal": "25800 fluorescence intensity (a.u.)"},
      {"sequence": "AATGGGACTTTGCCTGATTGATAGGGCGCCACGTGGCCCACGGAGTCACCTAGTGCAG", "binding signal": "29500 fluorescence intensity (a.u.)"},
      {"sequence": "ATTTTCTTTGATAATTAGGACATTTAAATTCCACAGCAACCGGAGTCACCTAGTGCAG", "binding signal": "6690 fluorescence intensity (a.u.)"},
      {"sequence": "GAAACAGATTGGAAAACTAGAGGAGAAGAACAGGTGCAATCGGAGTCACCTAGTGCAG", "binding signal": "27000 fluorescence intensity (a.u.)"},
      {"sequence": "TATGATTTTAAATTCGTCATACTCTAGTTAGCCTAGAAAACGGAGTCACCTAGTGCAG", "binding signal": "4190 fluorescence intensity (a.u.)"},
      {"sequence": "TAAAATTTGAAACAAATTTTCAGCAGGTTATTGCAACGATCGGAGTCACCTAGTGCAG", "binding signal": "11600 fluorescence intensity (a.u.)"},
      {"sequence": "TATAGATTAACAATTACTTTTGAATATTTGCATGCTTGCTCGGAGTCACCTAGTGCAG", "binding signal": "16600 fluorescence intensity (a.u.)"},
      {"sequence": "AGACAAAATTACCTTCATTTTAAAATTTAATACGGACTGTCGGAGTCACCTAGTGCAG", "binding signal": "5780 fluorescence intensity (a.u.)"},
      {"sequence": "ACAATCGGATTCTAATTAAAGCTCATGATTTTAAGCGAATCGGAGTCACCTAGTGCAG", "binding signal": "9400 fluorescence intensity (a.u.)"},
      {"sequence": "AATATTTAATTTAGGAGAATTGAACTATTGAGTTTGATCACGGAGTCACCTAGTGCAG", "binding signal": "9280 fluorescence intensity (a.u.)"},
      {"sequence": "CTATTTTATAAATTTATTTATTTATTTATTATACTTCACTCGGAGTCACCTAGTGCAG", "binding signal": "5120 fluorescence intensity (a.u.)"},
      {"sequence": "TTAGATGATTTGTTTGCTTACTTCCATTCTAGCAGATAGACGGAGTCACCTAGTGCAG", "binding signal": "18500 fluorescence intensity (a.u.)"},
      {"sequence": "GGTGTTAAGTGAAAAGATTGGTAAATCCCTGGTGCATTGTCGGAGTCACCTAGTGCAG", "binding signal": "3850 fluorescence intensity (a.u.)"},
      {"sequence": "GTTAATTAATTATATTATAATAATTCTCTCAATTTGTCGCCGGAGTCACCTAGTGCAG", "binding signal": "65500 fluorescence intensity (a.u.)"},
      {"sequence": "TGTCTATCAATCAGATTTGTGCAATCTTAGCTCCCCTGTACGGAGTCACCTAGTGCAG", "binding signal": "25900 fluorescence intensity (a.u.)"},
      {"sequence": "AACTAACAGATTATTCTATGTCGGTTTATTATAATCCAACCGGAGTCACCTAGTGCAG", "binding signal": "15700 fluorescence intensity (a.u.)"},
      {"sequence": "GAGCCTAATTAGTCCATGATAAGCCATAAGTGTTACGGTACGGAGTCACCTAGTGCAG", "binding signal": "12200 fluorescence intensity (a.u.)"},
      {"sequence": "CCTTATTAAATCAATTAATAAGCACTTATTTAGTTCAGGCCGGAGTCACCTAGTGCAG", "binding signal": "27400 fluorescence intensity (a.u.)"},
      {"sequence": "TGGGCTGATTTGCGAAAACGTATTCTGAAAGACCAAAACCCGGAGTCACCTAGTGCAG", "binding signal": "6080 fluorescence intensity (a.u.)"},
      {"sequence": "TTCCAAATAAACCAATCTAGATTGGGACGCCTAATACAATCGGAGTCACCTAGTGCAG", "binding signal": "12400 fluorescence intensity (a.u.)"}
    ]}
  ]
}
